Data as given in PubChem BioAssay AID2675 (National Center for Advancing Translational Sciences (NCATS), 2010).
The whole screen tested about 280,000 compounds, of which about 100 (0.036%) were called active. This list was built around the results that the source calls inconclusive (neither active nor inactive); the mix of calls is not that of the screen. Calls follow the shape of the dose curve; as a rule, active = well fitted inhibition curve with a large enough effect in the signal ratio, with a control signal flat (not every such curve was filed as active); inconclusive = small, poorly fitted or top-dose-only effect, or effect the other way, or a change in a side signal; inactive = no such curve, though single readings can be large or run the other way; the % refers to the signal ratio. Where the call is inconclusive, the potency comes from a doubtful curve fit. “Side channel” marks fits to a control or component signal instead of the main read-out.

Target: Muscleblind-like protein 1 (Homo sapiens) (UniProt Q9NR56)
Chain of UniProt Q9NR56 (Q9NR56 whole entry, looked up): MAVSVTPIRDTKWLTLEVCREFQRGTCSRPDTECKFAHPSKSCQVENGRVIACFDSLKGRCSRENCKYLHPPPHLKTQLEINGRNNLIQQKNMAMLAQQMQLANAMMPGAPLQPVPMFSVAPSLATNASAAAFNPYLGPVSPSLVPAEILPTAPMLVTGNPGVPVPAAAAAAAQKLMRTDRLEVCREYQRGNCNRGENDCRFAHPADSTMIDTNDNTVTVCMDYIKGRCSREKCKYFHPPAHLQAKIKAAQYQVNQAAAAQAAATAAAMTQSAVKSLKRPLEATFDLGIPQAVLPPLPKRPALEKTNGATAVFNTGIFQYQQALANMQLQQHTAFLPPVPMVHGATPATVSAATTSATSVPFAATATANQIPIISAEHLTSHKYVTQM
Assay: qHTS Assay for Inhibitors of MBNL1-poly(CUG) RNA binding
Conditions: TR-FRET MBNL1-His/biotin-(CUG)12 binding, 665/545 ratio; activity change, negative = inhibition: at 57.5 µM (top of the series)
Procedure, shortened: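 Inhibition of protein-RNA binding appears as loss of TR-FRET between terbium anti-His antibody on MBNL1-His and streptavidin-XL665 on biotin-(CUG)12. Activity is normalized to buffer-only and uninhibited-complex controls.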
% is scaled to controls: 0 for no effect and ±100 for the full control effect; potency is read from the fitted curve at half-maximal effect; tags tell the direction and shape of the fitted curve or compound fluorescence and quenching.

| Compound | Potency | activity change, negative = inhibition |
| --- | --- | --- |
| CCCCOC(=O)CCCc1ccc([N+](=O)[O-])cc1[N+](=O)[O-] | inconclusive: 22.4 µM [quencher, side channel, partial curve] | – |
| CCOC(=O)Cc1c(Sc2ccccc2)c2ccccc2n1C | inconclusive: 0.1 µM [fluorescent, side channel, full curve, poor fit] | – |
| O=C(c1cccs1)N1CCN(Cc2cccc([N+](=O)[O-])c2)CC1 | inconclusive: 3.16 µM [quencher, side channel, single point] | – |
| Cc1cc(C)nc(N/N=C/c2ccccc2)n1 | inconclusive: 2.51 µM [quencher, side channel, partial curve, poor fit] | – |
| CCOC(=O)CCCCC(=O)c1[nH]c(=O)[nH]c1CSc1nc2ccccc2[nH]1 | inconclusive: 35.5 µM [inhibitor, single point] | – |
| O=Nc1c2ccc[nH]c-2c2ccc([N+](=O)[O-])cc12 | inconclusive: 39.8 µM [quencher, single point] | – |
| CCn1c2ccccc2c2nnc(SCC(=O)NC3CCS(=O)(=O)C3)nc21 (stereo not given) | inconclusive: 20 µM [quencher, side channel, single point] | – |
| CCOC(=O)C1(C)/C(=N/Nc2ccc(S(N)(=O)=O)cc2)C(=O)C(=O)N1c1ccccc1 (stereo not given) | inconclusive: 28.2 µM [quencher, side channel, partial curve] | – |
| N#C/C(=C\c1cccc(OC(=O)c2cccs2)c1)C(N)=O | inconclusive: 28.2 µM [quencher, side channel, partial curve, poor fit] | – |
| CC(C)(C)N1C(=O)Cc2c1nc(N)c1c(N)nc(N3CCCCC3CO)c(C#N)c21 (stereo not given) | inconclusive: 31.6 µM [quencher, single point] | – |
| O=C(CSc1nc2ccccc2n1CC(=O)N1CCOCC1)N1CCCC1 | inconclusive: 79.4 µM [inhibitor, single point] | – |
| Cc1cc(Br)c2[nH]cc(CCNC(=O)c3ccco3)c2c1 | – | inactive: -7.22% |
| COc1ccc(NC(=O)CN(C)C(=O)CCC2CCCC2)cc1 | – | inactive: -0.0091% |
| Cn1c2ccccc2n2c(=O)c(=O)n(CC(=O)c3ccc(F)cc3)nc12 | inconclusive: 4.47 µM [fluorescent, side channel, single point] | – |
| Cn1c(CCN2CCCCC2)nc2cc([N+](=O)[O-])ccc21 | inconclusive: 20 µM [quencher, side channel, partial curve] | – |
| COc1ccc2nc3sc(C(=O)N4CCN(C)CC4)cc3cc2c1 | inconclusive: 15.8 µM [quencher, side channel, partial curve] | – |
| O=C(/C=C/c1ccccc1[N+](=O)[O-])NC1CCCC1 | inconclusive: 28.2 µM [quencher, side channel, partial curve] | – |
| CN(C)c1ccc(CNc2ccccn2)cc1 | – | inactive: -2.78% |
| Cc1ccc(-n2nc3c(=O)n(C(C)C(=O)NCCCc4ccccc4)nc(C)c3c2C)cc1 (stereo not given) | – | inactive: -5.67% |
| CC(=O)Nc1ccc(NC(=O)C/C(C)=N/NC(N)=S)cc1 | – | inactive: 4.2% |

| Compound | Potency | activity change, negative = inhibition |
| --- | --- | --- |
| Oc1ccc(NCc2ccccc2OCc2ccccc2F)cc1 | – | inactive: 2.21% |
| Cc1ccc2nc(-c3sc4nc(C)ccc4c3N)[nH]c2c1 | inconclusive: 22.4 µM [quencher, side channel, partial curve, poor fit] | – |
| CCN(c1cccc(C)c1)S(=O)(=O)c1ccc(OC)c([N+](=O)[O-])c1 | inconclusive: 39.8 µM [quencher, side channel, single point] | – |
| O=C(O)c1ccc(-n2c(O)c(C=C3N=c4ccccc4=N3)sc2=S)cc1 | inconclusive: 14.1 µM [quencher, side channel, partial curve] | – |
| Cc1cc(C(F)(F)F)nn1Cc1ccc(C(=O)NCc2ccco2)o1 | – | inactive: -0.658% |
| O=C(CCN1C(=O)c2ccccc2C1=O)Nc1ccc2c(c1)OCCO2 | inconclusive: 15.8 µM [quencher, side channel, partial curve] | – |
| CCC(C)/C(C)=N/NC(=O)CNS(=O)(=O)c1ccc([N+](=O)[O-])cc1 (stereo not given) | inconclusive: 11.2 µM [quencher, side channel, partial curve] | – |
| Cc1ccc(NC(=O)c2cc([N+](=O)[O-])ccc2Cl)c(O)c1 | inconclusive: 11.2 µM [quencher, side channel, partial curve] | – |
| CCOC(=O)c1[nH]c2ccc(OC)cc2c1NC(=O)CN1CCSCC1 | – | inactive: 4.96% |
| COc1ccc(O)c(C(=O)c2cnc3onc(C)c3c2)c1 | inconclusive: 28.2 µM [quencher, side channel, single point] | – |
| CCN(Cc1ccccc1)S(=O)(=O)c1cc(C(=O)NC2CCCCCC2)ccc1OC | – | inconclusive: -5.85% [phenotype inactive] |
| O=C(NCc1ccccn1)c1cccc([N+](=O)[O-])c1 | inconclusive: 15.8 µM [quencher, side channel, partial curve] | – |
| CSc1ncc(OCc2ccccc2)c(=O)[nH]1 | inconclusive: 79.4 µM [inhibitor, single point] | – |
| COc1cccc2cc(-c3ccccc3)c(=O)oc12 | inconclusive: 14.1 µM [quencher, partial curve] | – |
| COC(=O)c1nc2nc(-c3cccs3)cc(C(F)(F)F)n2n1 | inconclusive: 2.51 µM [quencher, side channel, partial curve] | – |
| Nc1c(C(=O)NCc2ccc3c(c2)OCO3)c2nc3ccccc3nc2n1CCCN1CCOCC1 | inconclusive: 10 µM [quencher, side channel, partial curve] | – |
| CC(=O)N1CCN(c2ccc([N+](=O)[O-])cc2C#N)CC1 | inconclusive: 7.08 µM [quencher, side channel, partial curve] | – |
| CN(Cc1ccc2nonc2c1)Cc1nc(CC2CC2)no1 | inconclusive: 25.1 µM [quencher, side channel, partial curve] | – |
| COc1ccccc1-c1nnc(SCC(=O)NC2CCS(=O)(=O)C2)n1N (stereo not given) | – | inactive: -0.995% |
| O=C(O)c1ccc(Nc2c3ccccc3nc3ccccc23)cc1 | inconclusive: 2.82 µM [quencher, side channel, full curve] | – |
